Test results published in PMC4336329 (PLoS ONE, 2015).
Among all 310,000 compounds or so, about 14,000 (4.5%) showed an effect of 50% or more. Effects have a minus sign here. The list shows a part of the results.

biological target: human ether-à-go-go-related gene (hERG) potassium channel (human, UniProt Q12809); experiment: primary screen, population patch clamp on CHO cells stably expressing hERG
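Further: peak tail current of the secondary pulse compared with the same well before compound.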

human ether-à-go-go-related gene (hERG) potassium channel, sequence (Q12809 whole entry, looked up): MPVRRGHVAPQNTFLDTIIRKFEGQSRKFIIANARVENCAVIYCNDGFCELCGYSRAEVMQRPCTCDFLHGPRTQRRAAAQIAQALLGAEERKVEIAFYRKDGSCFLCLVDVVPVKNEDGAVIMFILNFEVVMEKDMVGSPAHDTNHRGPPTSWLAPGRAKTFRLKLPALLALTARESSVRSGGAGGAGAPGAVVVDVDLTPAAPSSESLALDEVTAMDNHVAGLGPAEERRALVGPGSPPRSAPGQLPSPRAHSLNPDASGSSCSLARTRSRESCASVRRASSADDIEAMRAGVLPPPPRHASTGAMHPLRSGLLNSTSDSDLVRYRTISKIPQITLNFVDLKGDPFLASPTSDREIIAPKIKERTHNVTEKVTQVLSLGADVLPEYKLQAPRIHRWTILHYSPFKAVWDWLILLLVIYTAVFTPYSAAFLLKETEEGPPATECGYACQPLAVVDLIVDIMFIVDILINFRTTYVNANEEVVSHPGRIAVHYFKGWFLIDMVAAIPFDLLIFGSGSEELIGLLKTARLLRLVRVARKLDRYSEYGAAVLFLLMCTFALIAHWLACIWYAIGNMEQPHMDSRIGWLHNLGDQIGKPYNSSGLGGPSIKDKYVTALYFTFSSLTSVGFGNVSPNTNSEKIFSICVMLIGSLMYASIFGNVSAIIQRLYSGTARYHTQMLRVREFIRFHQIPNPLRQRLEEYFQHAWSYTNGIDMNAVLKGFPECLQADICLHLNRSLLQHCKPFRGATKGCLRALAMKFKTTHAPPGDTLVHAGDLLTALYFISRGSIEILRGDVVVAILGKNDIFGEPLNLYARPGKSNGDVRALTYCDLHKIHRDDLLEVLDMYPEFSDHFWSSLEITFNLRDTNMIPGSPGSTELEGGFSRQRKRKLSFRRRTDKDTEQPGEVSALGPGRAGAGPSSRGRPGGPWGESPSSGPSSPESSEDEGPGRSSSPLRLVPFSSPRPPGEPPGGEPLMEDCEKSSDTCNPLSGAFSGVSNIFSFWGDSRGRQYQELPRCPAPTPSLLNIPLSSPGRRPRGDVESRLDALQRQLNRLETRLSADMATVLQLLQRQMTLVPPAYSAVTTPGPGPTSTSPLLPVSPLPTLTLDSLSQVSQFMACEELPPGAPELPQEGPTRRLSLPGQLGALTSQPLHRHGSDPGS

Row | Structure (SMILES) | hERG current change (%, negative = inhibition) at 10uM
1 | COC(=O)Cc1cc(=O)[nH]c(Nc2nc3ccccc3o2)n1 | -18.7%
2 | CCCCNC(=O)CSc1nc2cc3c(cc2c(=O)n1CCCN(CC)CC)OCO3 | -62.6%
3 | COCCCn1c(=S)[nH]c2c(sc3ccccc32)c1=O | 3.31%
4 | COCC(=O)n1nc(NCc2ccc(OC)cc2)nc1NCc1ccc(OC)cc1 | -7.87%
5 | Cc1cc(C)n2nc(C)c(Br)c2n1 | 20%
6 | CCCCN(C(=O)COc1ccc(NC(C)=O)cc1)C1CCS(=O)(=O)C1 (stereo not shown) | 10.7%
7 | C/C(=N\O)c1c(O)cc(-c2ccccc2)n(-c2ccccc2)c1=O | 8.56%
8 | Cc1cccc(/C=N\NC(=O)c2csnn2)c1 | 3.63%
9 | CCOC(=O)c1csc(NC(=O)c2ccc(N3C(=O)CCC3=O)cc2)n1 | 12.3%
10 | Cc1ccc(S(=O)(=O)NNC(=O)C2COc3ccccc3O2)cc1C (stereo not shown) | 15.2%
11 | CCC(=O)Nc1ccc(N2CCCCC2)c(C(=O)Nc2ccccc2C)c1 | 9.82%
12 | CC(C)n1cnc2c(Nc3ccc(F)c(Cl)c3)nc(NCCO)nc21 | -39%
13 | CCOc1ccc(CN(C)CCc2ccccn2)cc1.O=C(O)C(=O)O | -77.8%
14 | Cc1nn(Cc2ccccc2)c2c1C(c1ccncc1)C(C#N)=C(N)O2 (stereo not shown) | -0.682%
15 | CC12CCC(=O)N1C(C(=O)Nc1nc3ccc(S(C)(=O)=O)cc3s1)CS2 (stereo not shown) | 20.4%
16 | NS(=O)(=O)c1ccc(CCNC(=O)Nc2ccc(Cl)cc2)cc1 | -9.65%
17 | CN=C1SC(CC(=O)Nc2ccc(N3CCOCC3)cc2)C(=O)N1C (stereo not shown) | -6.91%
18 | CC1CCCC(N2CCN(S(=O)(=O)c3ccccc3)CC2)C1.O=C(O)C(=O)O (stereo not shown) | 5.88%
19 | O=C(COc1cccc(F)c1)N[C@@H](Cc1ccccc1)c1nc2ccccc2[nH]1 | 20.3%
20 | CCn1c2ccccc2c2nc3ccccc3nc21 | -0.354%
21 | CCOC(=O)C1=C(CSCc2ccccc2)NC(=O)NC1c1cc(C)ccc1C (stereo not shown) | -3.71%
22 | Cc1ccccc1CN(C)CC(=O)Nc1c(C)cccc1C(C)C | 5.19%

Row | Structure (SMILES) | hERG current change (%, negative = inhibition) at 10uM
23 | CN(c1ccc(F)cc1)S(=O)(=O)c1ccc(Cl)c(C(=O)NC2(C)CCS(=O)(=O)C2)c1 (stereo not shown) | 1.85%
24 | CC1Sc2ccc(S(=O)(=O)CCC(=O)NCc3cccs3)cc2NC1=O (stereo not shown) | 7.94%
25 | Cc1csc(NC(=O)c2cccn2C)n1 | 5.66%
26 | Cc1ccc(OCCn2c3ccccc3n3nc(C)c(=O)nc23)cc1 | -2.12%
27 | CCN1CCN(c2ncc(C(=O)N3CCCc4ccccc43)c3ccccc23)CC1 | -46.6%
28 | CCc1nc2ccccc2n1Cc1ccc(OC)c(OC)c1 | -9.59%
29 | COc1ccc(OC)c(NC(=O)C2CC(=O)n3ncnc3N2)c1 (stereo not shown) | -3.37%
30 | O=C(N/N=C/c1cccc(O)c1)c1ccc(COc2ccccc2Br)cc1 | -9.52%
31 | COC(=O)c1c(C)nc2ccccc2c1C(=O)O | 14%
32 | O=C(Cc1csc(-c2ccc(F)cc2)n1)Nc1cccc(S(=O)(=O)NC2=NCCC2)c1 | -18.1%
33 | Cc1cc2c(c(=O)o1)C(c1ccc([N+](=O)[O-])o1)C(C#N)=C(N)O2 (stereo not shown) | -15%
34 | Cc1ccc(S(=O)(=O)Nc2ccccc2F)cc1C(=O)N1CCCC1 | -18.3%
35 | FC(F)(F)c1ccc(CN2CCN(Cc3ccco3)CC2)cc1.O=C(O)C(=O)O | 0.168%
36 | O=C(CCCNC(=O)c1ccc(Cl)cc1)Nc1cccc(S(=O)(=O)N2CCCCC2)c1 | -20.2%
37 | CCOC(=O)Cc1csc(SCC(=O)NC(C)C23CC4CC(CC(C4)C2)C3)n1 (stereo not shown) | -20.2%
38 | CC(/C=N/NC(=O)c1cnccn1)=C\c1ccco1 | 6.37%
39 | Cc1ccccc1C(=O)NC1CCN(Cc2nnnn2Cc2ccc(F)cc2)CC1 | -40.9%
40 | O=S(=O)(c1ccccc1)N1CCN(C(=S)Nc2ccc(Br)cc2)CC1 | 12.1%
41 | O=C(NC1CC1)c1ccc(COc2ccc(F)cc2)o1 | -5.67%
42 | O=C(Nc1nc2ccccc2s1)c1ccc(N2CCCCC2)c([N+](=O)[O-])c1 | 6.67%
43 | Cc1cc(/C=C2/C(=O)NC(=O)N(C)C2=O)c(C)n1-c1ccccc1 | 14.6%
44 | CCN(CC(=O)N1CCCC1)S(=O)(=O)c1cc(C)ccc1OC | 19.1%

Row | Structure (SMILES) | hERG current change (%, negative = inhibition) at 10uM
45 | Cc1ccn2c(=O)nc(SCC(=O)NC3CCCCC3)nc2c1 | 6.35%
46 | Cc1ccc(C(C(=O)NC(C)(C)C)N(C(=O)c2csnn2)c2cccc(F)c2)o1 (stereo not shown) | 7.54%
47 | O=C(CNC(=O)c1ccc(OC(F)F)cc1)NCC1(N2CCOCC2)CCCCC1 | -68.5%
48 | c1cnc2c(Oc3ncnc4sccc34)cccc2c1 | -4.99%
49 | CC(C)c1ccc(/C=N/N2CCN(c3ccccn3)CC2)cc1 | 8.39%
50 | Cc1cccc(N2CC(C(=O)NCCC3=CCCCC3)CC2=O)c1C (stereo not shown) | -4.77%
51 | CC(Nc1nc(-c2ccc(F)cc2)cs1)c1nc2cc(Cl)c(Cl)cc2n1CCOCCO (stereo not shown) | -27.2%
52 | CC1CCCN(C(=O)c2ccc(N3CC4CC(C3)c3cccc(=O)n3C4)c([N+](=O)[O-])c2)C1 (stereo not shown) | -29.7%
53 | Cc1ccc(-c2noc(CSc3nnc(Cc4ccccc4)n3-c3cccc(C)c3)n2)cc1 | -5.49%
54 | CCN1C(=O)N(c2cccc3ccccc23)C(C)=CC1(C)C | -1.91%
55 | Cc1[nH]n(-c2ccccc2)c(=O)c1/C=N/NC(=O)c1ccccc1F | 2.32%
56 | CC(=O)N1c2ccc(S(=O)(=O)N3CCCC3)cc2CC1C(=O)Nc1cc(C)cc(C)c1 (stereo not shown) | -4.81%
57 | Nc1c(C(=O)Nc2nc3ccccc3s2)sc2nc(-c3cccs3)ccc12 | 1.44%
58 | COc1cc(/C=N/NC(=O)c2ccccc2)ccc1OS(=O)(=O)c1ccccc1 | 1.85%
59 | COC(=O)Nc1ccc2c(c1)N(C(=O)CCN1CCOCC1)c1ccccc1S2.Cl | 2.68%
60 | CCCNC(=O)CCc1cc(C(C)(C)C)c(O)c(C(C)(C)C)c1 | -5.21%
61 | Cc1ccc(NCc2nnc(SCCN3CCCCC3)n2CC2CCCO2)c(C)c1 (stereo not shown) | -58.5%
62 | Cc1ccc(NC(=O)CN(c2ccccc2)S(=O)(=O)N(C)C)cc1C | 3.15%
63 | CCCCC(=O)N(c1ccc(C)c(C)c1)C1C=CS(=O)(=O)C1 (stereo not shown) | 13.3%
64 | CCn1c(SCC(=O)N2CCN(c3ccccc3)CC2)nc2c(c1=O)SC(C)C2 (stereo not shown) | -48.2%
65 | CC(C)COP(=O)(OCC(C)C)C(Nc1ccccc1)c1ccccc1 (stereo not shown) | -18.7%
66 | Cc1c(C(=O)N2CCN(C(=O)c3ccccc3)CC2)oc2ccc(F)cc12 | -44.8%

Row | Structure (SMILES) | hERG current change (%, negative = inhibition) at 10uM
67 | COC(=O)C(=C/C(C)=C/c1cccnc1)C(=O)OC | -2.68%
68 | CCC(=O)NNc1ccc(Br)cc1 | 8.48%
69 | Cc1nnc(SCCn2c(N3CCC(C)CC3)nc3c2c(=O)[nH]c(=O)n3C)s1 | 6.44%
70 | CCNc1nc(NCC)nc(N(C)n2cnnc2)n1 | -7.9%
71 | CCOC(=O)C1CCCN(S(=O)(=O)c2ccc(C)cc2)C1 (stereo not shown) | -2.86%
72 | CCC1[NH+]=C(SC)NC(C)=C1C(=O)c1ccccc1.[I-] (stereo not shown) | 6.67%
73 | COCCn1c(SCC(=O)Nc2cccc(C(=O)OC)c2)nc2ccccc2c1=O | -42.5%
74 | COc1ccc(N2CCN(c3nc(NC(C)(C)C)nc(N4CCCCC4)n3)CC2)cc1 | 19.6%
75 | CCN1C(=O)c2ccccc2S(=O)(=O)c2ccc(C(=O)NCCCN(CC(C)C)CC(C)C)cc21 | -12.7%
76 | Nc1nc2c(F)cccc2s1 | 31.2%
77 | CCOC(=O)Nc1c(C)n(C)n(-c2ccccc2)c1=O | 8.5%
78 | N#C/C(=C\Nc1ccc2c(c1)OCCO2)c1nc2ccccc2[nH]1 | -28.8%
79 | COc1ccc(NC(=O)COc2coc(CN3CCc4ccccc4C3)cc2=O)cc1 | 0.124%
80 | O=S(=O)(O)c1nc2ccccc2n1Cc1cccc2ccccc12 | 10.8%
81 | CCc1nnc(NC(=O)C(=O)NCCOC(=O)c2ccccc2Cl)s1 | 5.68%
82 | O=S(=O)(c1ccc(F)cc1)N1CCN=C1SCc1cccc(F)c1 | 4.76%
83 | CCCc1cc(=O)[nH]c(SCC(=O)Nc2cc(C)on2)n1 | -70.9%
84 | O=C(NCc1ccncc1)C(=O)Nc1nc(C23CC4CC(CC(C4)C2)C3)cs1 | -5.7%
85 | Cc1nn(C)c(NC(=O)c2ccccc2Cl)c1Cl | 23.1%
86 | COc1cccc(CNC(=O)C2CCC(CNS(=O)(=O)c3cccc4nsnc34)CC2)c1 (stereo not shown) | -29.4%
87 | CCc1cccc(N(C(=O)c2csnn2)C(C(=O)NC2CCCCC2)c2ccncc2)c1 (stereo not shown) | 7.18%
88 | CC(C)(C)CC(=O)Nc1ccc(S(=O)(=O)N2CCCC2)cc1 | 4.31%
